# According to PMC4336329 (PLoS ONE, 2015):
# Among all 310,000 compounds or so, about 2,200 (0.71%) showed an effect of 50% or more. The effect is printed as a negative number. The list shows a part of the results.
# Target: human ether-à-go-go-related gene (hERG) potassium channel (human, UniProt Q12809)
# Assay: primary screen, population patch clamp on CHO cells stably expressing hERG
# human ether-à-go-go-related gene (hERG) potassium channel, sequence (Q12809 whole entry, looked up): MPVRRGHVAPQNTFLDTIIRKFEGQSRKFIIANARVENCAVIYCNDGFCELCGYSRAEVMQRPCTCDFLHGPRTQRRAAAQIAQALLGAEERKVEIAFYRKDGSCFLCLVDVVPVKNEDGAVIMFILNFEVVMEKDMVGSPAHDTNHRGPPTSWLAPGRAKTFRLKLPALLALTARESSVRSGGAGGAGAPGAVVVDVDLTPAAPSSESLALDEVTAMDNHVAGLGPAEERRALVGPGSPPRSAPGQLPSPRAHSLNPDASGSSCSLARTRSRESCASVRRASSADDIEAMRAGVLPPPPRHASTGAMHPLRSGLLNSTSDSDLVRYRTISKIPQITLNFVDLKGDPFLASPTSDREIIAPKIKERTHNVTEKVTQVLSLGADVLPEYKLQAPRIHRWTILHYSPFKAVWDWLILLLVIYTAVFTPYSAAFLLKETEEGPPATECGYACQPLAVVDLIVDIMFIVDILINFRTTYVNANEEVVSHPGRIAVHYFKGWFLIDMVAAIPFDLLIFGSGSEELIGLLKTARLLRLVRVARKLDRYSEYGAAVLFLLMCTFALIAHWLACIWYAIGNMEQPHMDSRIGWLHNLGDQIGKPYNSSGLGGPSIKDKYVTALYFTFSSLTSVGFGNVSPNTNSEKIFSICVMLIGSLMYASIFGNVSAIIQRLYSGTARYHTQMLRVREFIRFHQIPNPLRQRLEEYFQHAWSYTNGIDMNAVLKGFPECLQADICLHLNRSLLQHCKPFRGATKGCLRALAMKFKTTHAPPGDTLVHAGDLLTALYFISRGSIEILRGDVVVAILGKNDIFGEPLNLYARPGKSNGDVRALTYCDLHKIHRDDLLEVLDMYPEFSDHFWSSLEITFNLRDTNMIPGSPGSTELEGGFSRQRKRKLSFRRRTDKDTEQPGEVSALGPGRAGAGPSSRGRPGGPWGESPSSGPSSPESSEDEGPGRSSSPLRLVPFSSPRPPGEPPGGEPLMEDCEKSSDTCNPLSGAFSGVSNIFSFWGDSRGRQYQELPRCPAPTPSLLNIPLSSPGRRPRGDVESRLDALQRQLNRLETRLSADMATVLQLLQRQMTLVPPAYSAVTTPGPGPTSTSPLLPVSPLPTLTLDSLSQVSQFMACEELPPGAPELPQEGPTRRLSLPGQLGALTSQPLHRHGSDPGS
row,Compound,"hERG current change (%, negative = inhibition) at 1uM [%]"
1,O=C(Nc1cccc(F)c1)N1CCCC(CNS(=O)(=O)Cc2ccccc2)C1 (centres unmarked),2.98
2,CC1CC(=O)N(CC(=O)Nc2ccc3c(c2)OCO3)c2ccccc2S1 (centres unmarked),3.42
3,CC1SCC(=O)N(CC(=O)Nc2ccc3c(c2)OCO3)C1=O (centres unmarked),14.1
4,COc1cc(OC)c(OC)cc1/C=N/NC(=S)NCC1CCCO1 (centres unmarked),10.5
5,O=C(Nc1ccc([N+](=O)[O-])cc1)C1C(c2ccccc2)=C1c1ccccc1,-4.83
6,Cc1noc(C)c1S(=O)(=O)Nc1ccccc1OC(F)(F)F,3.46
7,COc1cccc(CSCC(=O)NCCc2ccccc2)c1OC,8.85
8,COc1ccccc1COC(=O)Nc1c(C)nn(C)c1Cl,2.28
9,CC(=O)Nc1ccc(NC(=O)/C=C/c2ccc(Cl)cc2)cc1,5.22
10,Cc1ccc(-n2c(O)c(C=NCCCn3ccnc3)c(=O)[nH]c2=O)cc1,11.9
11,Cc1ccc(CCNC(=O)C2CCCN(S(C)(=O)=O)C2)cc1 (centres unmarked),13
12,CC(=O)Nc1cccc(NC(=O)CCc2ccccc2)c1,8.4
13,CCOC(=O)N1CCN(C(=O)CSc2ccc(-c3cccnc3)nn2)CC1,14.9
14,Cc1cnc(NC(=O)CCNC(=O)c2ccc([N+](=O)[O-])cc2)s1,7.22
15,COc1cccc(C(C(=O)NC(C)(C)C)N(CCC(C)C)C(=O)CCC(=O)Nc2cc(C)on2)c1OC (centres unmarked),6.26
16,COc1ccc(/C=N/NC(=O)c2cccnc2)cc1Cn1nc([N+](=O)[O-])c(Br)c1C,3.02
17,CCOC(=O)Cc1[nH]nc2c1C(Cc1ccccc1)C(C#N)=C(N)O2 (centres unmarked),9.9
18,Cc1nc(NC(=O)c2cc3ccccc3o2)ccc1Br,10.2
19,Cc1ccsc1C(=O)OC1CCOC1=O (centres unmarked),9.59
20,COc1cc(C(=O)Nc2ccc(C)cn2)ccc1OCC(=O)N1CCOCC1,1.73
21,Cc1ccc(S(=O)(=O)CCC(=O)NCc2ccccc2Cl)cc1,8.74
22,CCOC(=O)c1ccc(Nc2cc(C)nc(-c3ccccc3)n2)cc1,7

row,Compound,"hERG current change (%, negative = inhibition) at 1uM [%]"
1,COc1ccc(N(CC(=O)NC(C)(C)C)C(=O)CCC(=O)Nc2nccs2)c(OC)c1,12.3
2,COC(=O)C1Sc2[nH]c(=O)sc2C(c2ccc(Cl)cc2)C1C(=O)OC (centres unmarked),-20.6
3,CCN(C(=O)/C=C/c1ccccc1)C1CCCCC1,13.6
4,NS(=O)(=O)c1ccc(CCNC(=O)Cc2ccc(S(=O)(=O)N3CCOCC3)s2)cc1,9.98
5,Cc1ccnc(N2CCC(C(=O)Nc3ccc4c(c3)CCC4)CC2)n1,19.7
6,CC(C)c1ccc(C2C3=C(CC(C)(C)CC3=O)NC3=C2C(=O)c2ccccc23)cc1 (centres unmarked),11.1
7,Cc1cc([N+](=O)[O-])nn1CC(=O)N1N=C(C(F)F)CC1(O)C(F)F (centres unmarked),14.9
8,CC12COC3(C(N)=O)CC1CCC32C (centres unmarked),-1.02
9,COc1ccc2[nH]cc(C(=O)CCl)c2c1,11
10,Cc1ccc(NC(=O)CN(C)C(=O)c2cccc(S(=O)(=O)N3CCc4ccccc43)c2)cc1,6.51
11,COc1ccc(/C=C/c2ccccc2)cc1[C@H]1[C@H]2C=CC[C@@H](C)[C@@H]2C(=O)N1Cc1ccccc1,16.8
12,Cc1ccccc1N1CCN(C2CCCN(C(=O)c3ccsc3)C2)CC1 (centres unmarked),-9.94
13,COc1ccc(N2CCN(CCS(=O)(=O)c3cc(Cl)ccc3Cl)CC2)cc1,1.6
14,COCCNC(=O)c1cc(S(=O)(=O)N2CCOCC2)ccc1SCc1cccc(OC)c1OC,5.16
15,Cc1ccc(NC2CCCN(C(=O)CCN3CCCCO3)C2)cc1C (centres unmarked),6.44
16,CC1(C)Cc2c(sc(NC(=O)c3ccc4c(c3)OCCO4)c2C(N)=O)C(C)(C)N1,8.57
17,O=C1C2(CCCC13COC(c1ccc(O)cc1)OC3)COC(c1ccc(O)cc1)OC2 (centres unmarked),14.1
18,Cc1ccccc1Nc1c(-c2ccc(N3CCOCC3)cc2)nc2cnccn12,13.5
19,COc1ccc(-n2nc3c(N4CCC(C(=O)N5CCCCCC5)CC4)nnc(C)c3c2C)cc1,0.592
20,COc1ccc(Cl)cc1NC(=S)NCCO,11.6
21,Cc1ccc(Cl)cc1N1CCN(C(=O)COc2ccc3c(c2)CCC3)CC1,11.3
22,CSc1nc(C)cc(/C=C\c2ccccc2)c1C#N,7.95
